Results from the supplement of paper PMC12217912.
The other results are listed elsewhere or left out. Sequences were assembled here from the parent chain. Inactive controls read about 0.05.

B1: TEV protease; numbered along this chain (parent)
chain: MGESLFKGPRDYNPISSSICHLTNESDGHTTSLYGIGFGPFIITNKHLFRRNNGTLVVQSLHGVFKVKDTTTLQQHLVDGRDMIIIRMPKDFPPFPQKLKFREPQREERICLVTTNFQTKSMSSMVSDTSCTFPSGDGIFWKHWIQTKDGQCGSPLVSTRDGFIVGIHSASNFTNTNNYFTSVPKNFMELLTNQEAQQWVSGWRLNADSVLWGGHKVFMVKPEEPFQPVKEATQL

Variants of: B1
Assay: raw area under fraction-flipped curve 0-4 h after induction (AUC4h, not background-subtracted), DNA-recorder readout of cleavage of the substrate (dimensionless); higher = more cleavage of the substrate by the protease variant
Conditions: temperature: 34 °C; time window: 0-4 h after rhamnose induction
Experimental: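 In vivo DNA recorder in E. coli TOP10(DE3) ΔrhaA at 34 °C. Each TEVp single-site mutant (parent TEVp 0) is paired with a single-site variant of the 7-mer TEVs (canonical ENLYFQ|S). The substrate sits between flexible linkers in a Bxb1-sfGFP-TEVs-SsrA fusion, so cleavage stabilises Bxb1 and speeds flipping of a recombination array, read by NGS. The value is the raw area under the fraction-flipped curve over 0-4 h after rhamnose induction (AUC4h), with ≥20 reads per time point. It is not background-subtracted; inactive controls average about 0.047.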
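Further: Bxb1 expression induced with 0.2% (w/v) L-rhamnose at OD600 near 0.5, cultures sampled hourly, flipped fraction per protease–substrate barcode pair counted by paired-end Illumina sequencing.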

Row | Variant | area with substrate ENLYFQA | area with substrate ENLYFQC | area with substrate ENLYFQD | area with substrate ENLYFQG | area with substrate ENLYFQH | area with substrate ENLYFQI | area with substrate ENLYFQK | area with substrate ENLYFQL | area with substrate ENLYFQM | area with substrate ENLYFQN | area with substrate ENLYFQP | area with substrate ENLYFQQ | area with substrate ENLYFQR | area with substrate ENLYFQS | area with substrate ENLYFQT | area with substrate ENLYFQV | area with substrate ENLYFQW | area with substrate ENLYFQY | area with substrate ENLYFQF | area with substrate ENLYFQE
1 | H21W | 0.0847 | 0.125 | 0.0791 | 0.101 | 0.116 | 0.0699 | 0.0725 | 0.0548 | 0.0979 | 0.0818 | 0.045 | 0.0635 | 0.0605 | 0.106 | 0.0677 | 0.0586 | 0.0607 | 0.0689 |  | 
2 | H21Y | 0.0884 | 0.101 | 0.0725 | 0.121 |  | 0.0638 | 0.073 | 0.0625 | 0.0905 | 0.0586 | 0.0685 |  | 0.0461 | 0.093 |  | 0.0514 |  |  | 0.0792 | 
3 | H21G | 0.105 | 0.114 | 0.0732 | 0.106 | 0.0814 | 0.0483 | 0.0616 | 0.0551 | 0.0942 | 0.0699 | 0.058 | 0.111 | 0.0445 | 0.0997 | 0.0658 |  | 0.0593 | 0.0723 | 0.0798 | 
4 | H21N | 0.0952 |  |  | 0.095 | 0.0882 | 0.0655 | 0.0901 | 0.0593 |  | 0.0572 |  |  | 0.0574 | 0.0891 | 0.0689 | 0.06 | 0.058 | 0.0664 |  | 
5 | G28C | 0.0991 | 0.103 |  |  | 0.0568 | 0.0623 | 0.0631 | 0.0698 | 0.0891 | 0.0474 | 0.042 | 0.0626 | 0.0654 | 0.0861 | 0.0624 | 0.0543 | 0.0627 | 0.0708 |  | 
6 | D27A | 0.0846 | 0.103 | 0.0686 | 0.0843 | 0.0753 | 0.0485 | 0.0561 | 0.0444 | 0.0721 | 0.0695 |  |  | 0.0478 | 0.0937 |  | 0.0733 | 0.0554 | 0.0741 | 0.0776 | 
7 | D27Q | 0.124 | 0.0512 |  | 0.0728 |  | 0.0641 | 0.058 | 0.0604 | 0.0654 | 0.0754 |  |  | 0.0585 | 0.0955 | 0.0649 |  | 0.0559 | 0.0775 |  | 
8 | F38P | 0.0298 | 0.0294 |  | 0.0438 | 0.0573 | 0.0424 | 0.0413 | 0.0575 |  | 0.0379 | 0.0404 |  | 0.041 | 0.0417 | 0.0374 | 0.0431 | 0.0431 | 0.0368 | 0.0501 | 
9 | S32H | 0.0791 | 0.111 | 0.0797 | 0.0838 | 0.049 | 0.0608 | 0.0675 | 0.0625 | 0.0913 | 0.0794 | 0.0546 | 0.0607 | 0.0598 | 0.0963 | 0.0679 | 0.057 | 0.058 | 0.0687 | 0.0556 | 
10 | C20F | 0.0545 | 0.0736 | 0.051 |  | 0.0556 |  | 0.0465 | 0.0399 | 0.0643 | 0.0566 |  |  | 0.0514 | 0.067 | 0.0575 | 0.0461 | 0.057 | 0.0719 |  | 
11 | S17Q | 0.124 | 0.153 | 0.0614 | 0.14 |  | 0.0481 | 0.0572 | 0.0694 | 0.0944 | 0.085 | 0.0606 |  | 0.0542 | 0.115 | 0.0631 | 0.0454 | 0.068 | 0.0599 |  | 0.0472
12 | S17D | 0.105 | 0.147 | 0.078 | 0.118 | 0.0996 | 0.0532 | 0.0888 | 0.0601 | 0.117 |  | 0.0412 | 0.0735 | 0.0614 | 0.105 | 0.0703 | 0.0617 | 0.0678 |  |  | 
13 | S17F | 0.104 | 0.124 | 0.0804 | 0.0948 |  | 0.0595 | 0.0573 | 0.0565 |  | 0.0717 | 0.0785 |  | 0.0577 | 0.0949 | 0.055 | 0.0579 | 0.0483 | 0.0593 | 0.0507 | 
14 | T31F | 0.0998 | 0.116 | 0.0679 | 0.089 | 0.0774 | 0.0614 | 0.0631 | 0.0761 | 0.123 | 0.0653 | 0.0467 | 0.0663 | 0.0674 | 0.0986 | 0.0567 | 0.0788 | 0.0832 | 0.0963 |  | 
15 | E25P | 0.066 | 0.0443 | 0.0468 | 0.0755 | 0.045 | 0.0569 | 0.0463 | 0.0533 | 0.0518 | 0.0665 | 0.0565 |  | 0.0641 | 0.0634 | 0.0597 | 0.047 | 0.0542 | 0.048 | 0.0427 | 0.0644
16 | S18R | 0.0776 | 0.0902 |  |  | 0.0666 | 0.052 | 0.0624 | 0.0618 | 0.078 | 0.0533 |  |  | 0.0537 | 0.0903 | 0.0552 |  | 0.0672 | 0.0515 | 0.0772 | 
17 | T30W | 0.112 |  |  | 0.0924 |  | 0.0615 |  |  | 0.118 | 0.0614 | 0.0832 |  |  | 0.122 | 0.0627 | 0.0585 |  | 0.078 | 0.0788 | 0.061
18 | G37P | 0.0529 | 0.0843 |  | 0.0608 |  | 0.0456 | 0.0035 | 0.0298 | 0.0494 |  |  |  | 0.0466 | 0.0574 |  | 0.0386 |  | 0.0348 |  | 
19 | N13K | 0.093 | 0.115 | 0.0588 | 0.0972 | 0.105 | 0.0546 | 0.0583 | 0.0565 | 0.087 | 0.07 |  | 0.0389 | 0.055 | 0.0932 | 0.07 |  | 0.0621 | 0.0667 | 0.0792 | 
20 | N13R | 0.102 | 0.12 |  | 0.103 | 0.101 | 0.0674 | 0.0615 | 0.0701 | 0.11 | 0.089 | 0.0624 | 0.05 | 0.0669 | 0.113 | 0.0671 |  | 0.0626 | 0.0738 | 0.0858 | 0.062
21 | P14C | 0.107 | 0.077 |  | 0.0982 | 0.068 | 0.0653 | 0.0677 | 0.0496 | 0.0875 | 0.0608 | 0.0574 | 0.0691 | 0.055 | 0.0955 | 0.0535 | 0.0602 | 0.0622 | 0.0679 | 0.0599 | 0.0688
22 | P14W | 0.0712 | 0.124 | 0.0711 | 0.0856 | 0.115 | 0.0667 | 0.0561 | 0.0605 | 0.078 | 0.0823 | 0.0658 | 0.0622 | 0.0597 | 0.101 | 0.0722 | 0.0636 |  | 0.08 | 0.0779 | 
